# From the supplement of paper PMC12217912
# The other results are listed elsewhere or left out. The full chains were built here from the parent and the listed change. Values near 0.05 are background.
# B1: TEV protease; numbered along this chain (parent)
# chain: MGESLFKGPRDYNPISSSICHLTNESDGHTTSLYGIGFGPFIITNKHLFRRNNGTLVVQSLHGVFKVKDTTTLQQHLVDGRDMIIIRMPKDFPPFPQKLKFREPQREERICLVTTNFQTKSMSSMVSDTSCTFPSGDGIFWKHWIQTKDGQCGSPLVSTRDGFIVGIHSASNFTNTNNYFTSVPKNFMELLTNQEAQQWVSGWRLNADSVLWGGHKVFMVKPEEPFQPVKEATQL
# Variants of: B1
# Assay: raw area under fraction-flipped curve 0-4 h after induction (AUC4h, not background-subtracted), DNA-recorder readout of cleavage of the substrate (dimensionless); higher = more cleavage of the substrate by the protease variant
# Conditions: temperature: 34 °C; time window: 0-4 h after rhamnose induction
# 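Also: Bxb1 expression induced with 0.2% (w/v) L-rhamnose at OD600 near 0.5, cultures sampled hourly, flipped fraction per protease–substrate barcode pair counted by paired-end Illumina sequencing.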
variant,measurement,value
MGESLFKGPRDYNPISSSICHLTNESDGHTTSLYGIGFGPFIITNKHLFRRNNGTLVVQSLHGVFKVKDTTTLQQHLVDGRDMIIIRMPKDFPPFPQKLKFREPQREERICLVTTNFQTKSMSSMVSDTSCTFPSGDGIFWKMWIQTKDGQCGSPLVSTRDGFIVGIHSASNFTNTNNYFTSVPKNFMELLTNQEAQQWVSGWRLNADSVLWGGHKVFMVKPEEPFQPVKEATQL [H143M],area with substrate ENLDFQS,0.0485
same,area with substrate ENLFFQS,0.0706
same,area with substrate ENLKFQS,0.0732
same,area with substrate ENLNFQS,0.0693
same,area with substrate ENLPFQS,0.0601
same,area with substrate ENLQFQS,0.0665
same,area with substrate ENLRFQS,0.0637
MGESLFKGPRDYNPISSSICHLTNESDGHTTSLYGIGFGPFIITNKHLFRRNNGTLVVQSLHGVFKVKDTTTLQQHLVDGRDMIIIRMPKDFPPFPQKLKFREPQREERICLVTTNFQTKSMSSMVSDTSCTFPSGDGIFWKHWIQTSDGQCGSPLVSTRDGFIVGIHSASNFTNTNNYFTSVPKNFMELLTNQEAQQWVSGWRLNADSVLWGGHKVFMVKPEEPFQPVKEATQL [K148S],area with substrate ENLDFQS,0.0634
same,area with substrate ENLEFQS,0.0538
same,area with substrate ENLFFQS,0.067
same,area with substrate ENLGFQS,0.0771
same,area with substrate ENLKFQS,0.0831
same,area with substrate ENLNFQS,0.0605
same,area with substrate ENLRFQS,0.037
same,area with substrate ENLSFQS,0.0798
MGESLFKGPRDYNPISSSICHLTNESDGHTTSLYGIGFGPFIITNKHLFRRNNGTLVVQSLHGVFKVKDTTTLQQHLVDGRDMIIIRMPKDFPPFPQKLKFREPQREERICLVTTNFQTKSMSSMVSDTSCTFPSGDGIFWKHWIQTKDGQCGSRLVSTRDGFIVGIHSASNFTNTNNYFTSVPKNFMELLTNQEAQQWVSGWRLNADSVLWGGHKVFMVKPEEPFQPVKEATQL [P155R],area with substrate ENLDFQS,0.05
same,area with substrate ENLFFQS,0.0902
same,area with substrate ENLGFQS,0.0506
same,area with substrate ENLHFQS,0.0479
same,area with substrate ENLKFQS,0.0604
same,area with substrate ENLLFQS,0.0388
same,area with substrate ENLNFQS,0.049
same,area with substrate ENLPFQS,0.0516
same,area with substrate ENLQFQS,0.0555
same,area with substrate ENLSFQS,0.0443
same,area with substrate ENLTFQS,0.0601
same,area with substrate ENLVFQS,0.0476
MGESLFKGPRDYNPISSSICHLTNESDGHTTSLYGIGFGPFIITNKHLFRRNNGTLVVQSLHGVFKVKDTTTLQQHLVDGRDMIIIRMPKDFPPFPQKLKFREPQREERICLVTTNFQTKSMSSMVSDTSCTFPSGDGIFWKHWIQTKDGQCGSPLVMTRDGFIVGIHSASNFTNTNNYFTSVPKNFMELLTNQEAQQWVSGWRLNADSVLWGGHKVFMVKPEEPFQPVKEATQL [S158M],area with substrate ENLDFQS,0.0655
same,area with substrate ENLEFQS,0.0563
same,area with substrate ENLFFQS,0.0599
same,area with substrate ENLHFQS,0.0542
same,area with substrate ENLIFQS,0.0543
same,area with substrate ENLLFQS,0.06
same,area with substrate ENLMFQS,0.0715
same,area with substrate ENLNFQS,0.0516
same,area with substrate ENLPFQS,0.0717
same,area with substrate ENLQFQS,0.0562
same,area with substrate ENLRFQS,0.0498
same,area with substrate ENLSFQS,0.0438
same,area with substrate ENLTFQS,0.0645
MGESLFKGPRDYNPISSSICHLTNESDGHTTSLYGIGFGPFIITNKHLFRRNNGTLVVQSLHGVFKVKDTTTLQQHLVDGRDMIIIRMPKDFPPFPQKLKFREPQREERICLVTTNFQTKSMSSMVSDTSCTFPSGDGIFWKHWIQTKDGQCGSPLVRTRDGFIVGIHSASNFTNTNNYFTSVPKNFMELLTNQEAQQWVSGWRLNADSVLWGGHKVFMVKPEEPFQPVKEATQL [S158R],area with substrate ENLDFQS,0.0324
same,area with substrate ENLFFQS,0.0555
same,area with substrate ENLHFQS,0.0544
same,area with substrate ENLIFQS,0.0516
same,area with substrate ENLKFQS,0.0496
same,area with substrate ENLLFQS,0.0436
same,area with substrate ENLNFQS,0.0567
same,area with substrate ENLQFQS,0.0408
same,area with substrate ENLSFQS,0.0762
same,area with substrate ENLVFQS,0.0666
same,area with substrate ENLWFQS,0.0623
MGESLFKGPRDYNPISSSICHLTNESDGHTTSLYGIGFGPFIITNKHLFRRNNGTLVVQSLHGVFKVKDTTTLQQHLVDGRDMIIIRMPKDFPPFPQKLKFREPQREERICLVTTNFQTKSMSSMVSDTSCTFPSGDGIFWKHWIQTKDGQCGSPLVSFRDGFIVGIHSASNFTNTNNYFTSVPKNFMELLTNQEAQQWVSGWRLNADSVLWGGHKVFMVKPEEPFQPVKEATQL [T159F],area with substrate ENLDFQS,0.0671
same,area with substrate ENLEFQS,0.0448
same,area with substrate ENLFFQS,0.15
same,area with substrate ENLIFQS,0.0875
same,area with substrate ENLKFQS,0.0744
same,area with substrate ENLMFQS,0.0744
same,area with substrate ENLRFQS,0.0989
same,area with substrate ENLWFQS,0.0723
MGESLFKGPRDYNPISSSICHLTNESDGHTTSLYGIGFGPFIITNKHLFRRNNGTLVVQSLHGVFKVKDTTTLQQHLVDGRDMIIIRMPKDFPPFPQKLKFREPQREERICLVTTNFQTKSMSSMVSDTSCTFPSGDGIFWKHWIQTKDGQCGSPLVSTRDGTIVGIHSASNFTNTNNYFTSVPKNFMELLTNQEAQQWVSGWRLNADSVLWGGHKVFMVKPEEPFQPVKEATQL [F163T],area with substrate ENLDFQS,0.0611
same,area with substrate ENLEFQS,0.0627
same,area with substrate ENLFFQS,0.0814
same,area with substrate ENLHFQS,0.0797
same,area with substrate ENLIFQS,0.0906
same,area with substrate ENLLFQS,0.0675
same,area with substrate ENLMFQS,0.0635
same,area with substrate ENLNFQS,0.0519
same,area with substrate ENLPFQS,0.0589
same,area with substrate ENLSFQS,0.0791
same,area with substrate ENLVFQS,0.0835
MGESLFKGPRDYNPISSSICHLTNESDGHTTSLYGIGFGPFIITNKHLFRRNNGTLVVQSLHGVFKVKDTTTLQQHLVDGRDMIIIRMPKDFPPFPQKLKFREPQREERICLVTTNFQTKSMSSMVSDTSCTFPSGDGIFWKHWIQTKDGQCGSPLVSTRDGFSVGIHSASNFTNTNNYFTSVPKNFMELLTNQEAQQWVSGWRLNADSVLWGGHKVFMVKPEEPFQPVKEATQL [I164S],area with substrate ENLDFQS,0.0679
same,area with substrate ENLFFQS,0.0738
same,area with substrate ENLHFQS,0.0551
same,area with substrate ENLIFQS,0.051
same,area with substrate ENLKFQS,0.0501
same,area with substrate ENLLFQS,0.056
same,area with substrate ENLNFQS,0.0458
same,area with substrate ENLPFQS,0.051
same,area with substrate ENLQFQS,0.0454
same,area with substrate ENLRFQS,0.0599
same,area with substrate ENLSFQS,0.0592
same,area with substrate ENLWFQS,0.052
MGESLFKGPRDYNPISSSICHLTNESDGHTTSLYGIGFGPFIITNKHLFRRNNGTLVVQSLHGVFKVKDTTTLQQHLVDGRDMIIIRMPKDFPPFPQKLKFREPQREERICLVTTNFQTKSMSSMVSDTSCTFPSGDGIFWKHWIQTKDGQCGSPLVSTRDGFIVGIHSATNFTNTNNYFTSVPKNFMELLTNQEAQQWVSGWRLNADSVLWGGHKVFMVKPEEPFQPVKEATQL [S171T],area with substrate ENLDFQS,0.0575
same,area with substrate ENLHFQS,0.0774
same,area with substrate ENLIFQS,0.108
same,area with substrate ENLKFQS,0.0758
same,area with substrate ENLPFQS,0.0478
MGESLFKGPRDYNPISSSICHLTNESDGHTTSLYGIGFGPFIITNKHLFRRNNGTLVVQSLHGVFKVKDTTTLQQHLVDGRDMIIIRMPKDFPPFPQKLKFREPQREERICLVTTNFQTKSMSSMVSDTSCTFPSGDGIFWKHWIQTKDGQCGSPLVSTRDGFIVGIHSASNQTNTNNYFTSVPKNFMELLTNQEAQQWVSGWRLNADSVLWGGHKVFMVKPEEPFQPVKEATQL [F173Q],area with substrate ENLDFQS,0.0645
same,area with substrate ENLFFQS,0.0802
same,area with substrate ENLHFQS,0.0589
same,area with substrate ENLKFQS,0.0766
same,area with substrate ENLNFQS,0.067
same,area with substrate ENLPFQS,0.0393
same,area with substrate ENLRFQS,0.0979
same,area with substrate ENLSFQS,0.0615
